Measured values as given in article PMC8633501.
Results are given in words; binding and its absence hold for the method and conditions named. Some entries that bind do so weakly or less than the wild type. Where a sequence is shown, tags or fusion partners need not be part of it.

Assays:
Assay in all cases: two-hybrid; truncations fused to the GAL4 binding domain (pGBKT7) with full-length ROC8 or ROC5 fused to the AD (pGADT7) in yeast AH109; growth on SD/-Trp/-Leu/-His/-Ade
[1] = target: T1, BD-ROC5 X5 (amino acids 309-804) (rice (Oryza sativa L.)) (UniProt Q6EPF0)
T1 sequence: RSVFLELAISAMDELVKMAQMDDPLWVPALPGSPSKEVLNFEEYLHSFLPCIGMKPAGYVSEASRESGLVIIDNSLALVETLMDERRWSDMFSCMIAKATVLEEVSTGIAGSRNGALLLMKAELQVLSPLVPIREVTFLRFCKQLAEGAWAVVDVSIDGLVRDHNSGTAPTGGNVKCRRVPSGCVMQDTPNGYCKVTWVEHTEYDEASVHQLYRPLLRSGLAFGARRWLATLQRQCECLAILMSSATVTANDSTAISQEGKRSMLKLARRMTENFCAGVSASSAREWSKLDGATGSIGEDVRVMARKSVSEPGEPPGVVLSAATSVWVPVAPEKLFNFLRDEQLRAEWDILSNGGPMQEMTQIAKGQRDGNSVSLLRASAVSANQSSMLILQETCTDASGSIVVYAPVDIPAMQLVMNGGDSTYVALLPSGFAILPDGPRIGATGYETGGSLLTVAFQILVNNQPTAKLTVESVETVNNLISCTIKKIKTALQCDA

[2] = target: T2, BD-ROC5 X8 (amino acids 154-308) (rice (Oryza sativa L.)) (UniProt Q6EPF0)
T2 sequence: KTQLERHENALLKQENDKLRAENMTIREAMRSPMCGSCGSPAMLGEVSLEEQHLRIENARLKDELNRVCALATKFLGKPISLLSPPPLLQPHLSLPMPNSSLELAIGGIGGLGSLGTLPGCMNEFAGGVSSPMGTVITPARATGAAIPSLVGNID

[3] = target: T3, BD-ROC5 X7 (amino acids 545-804) (rice (Oryza sativa L.)) (UniProt Q6EPF0)
T3 sequence: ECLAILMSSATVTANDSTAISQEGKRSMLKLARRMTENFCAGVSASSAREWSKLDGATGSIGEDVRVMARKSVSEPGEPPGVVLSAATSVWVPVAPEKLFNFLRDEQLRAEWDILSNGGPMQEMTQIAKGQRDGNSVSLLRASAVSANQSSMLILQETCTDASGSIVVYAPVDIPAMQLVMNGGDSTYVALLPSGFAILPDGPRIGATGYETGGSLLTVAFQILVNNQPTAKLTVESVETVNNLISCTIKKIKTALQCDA

[4] = target: T4, BD-ROC5 X9 (amino acids 97-308) (rice (Oryza sativa L.)) (UniProt Q6EPF0)
T4 sequence: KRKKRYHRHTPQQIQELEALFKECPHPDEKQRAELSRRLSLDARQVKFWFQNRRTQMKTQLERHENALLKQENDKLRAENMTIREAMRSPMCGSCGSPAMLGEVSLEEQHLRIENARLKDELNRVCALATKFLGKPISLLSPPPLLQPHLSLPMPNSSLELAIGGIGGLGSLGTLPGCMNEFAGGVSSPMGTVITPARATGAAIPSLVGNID

[5] = target: T5, BD-ROC8 P7 (amino acids 436-710) (rice (Oryza sativa L.)) (UniProt Q69T58)
T5 sequence: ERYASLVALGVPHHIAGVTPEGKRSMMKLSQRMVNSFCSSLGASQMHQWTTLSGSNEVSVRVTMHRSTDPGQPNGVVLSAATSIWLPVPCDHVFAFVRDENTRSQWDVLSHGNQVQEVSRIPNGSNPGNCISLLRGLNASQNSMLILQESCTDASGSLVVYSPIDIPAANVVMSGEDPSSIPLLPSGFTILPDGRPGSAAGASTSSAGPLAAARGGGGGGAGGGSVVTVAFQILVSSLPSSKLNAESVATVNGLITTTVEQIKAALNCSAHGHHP

[6] = target: T6, BD-ROC8 P5 (amino acids 201-710) (rice (Oryza sativa L.)) (UniProt Q69T58)
T6 sequence: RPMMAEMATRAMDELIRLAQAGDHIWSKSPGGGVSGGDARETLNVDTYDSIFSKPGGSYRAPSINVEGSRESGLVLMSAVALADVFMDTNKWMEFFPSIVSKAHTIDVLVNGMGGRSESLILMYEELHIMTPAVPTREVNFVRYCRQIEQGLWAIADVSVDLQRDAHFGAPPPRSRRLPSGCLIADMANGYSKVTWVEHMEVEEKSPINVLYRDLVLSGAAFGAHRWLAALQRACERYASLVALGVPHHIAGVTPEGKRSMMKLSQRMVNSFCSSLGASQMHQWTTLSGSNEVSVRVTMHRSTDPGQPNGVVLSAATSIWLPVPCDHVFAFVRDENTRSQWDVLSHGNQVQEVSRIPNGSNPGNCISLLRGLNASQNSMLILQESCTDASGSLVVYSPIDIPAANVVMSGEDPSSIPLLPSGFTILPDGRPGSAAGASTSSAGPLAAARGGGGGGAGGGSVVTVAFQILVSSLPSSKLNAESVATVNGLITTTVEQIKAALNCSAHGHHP

[7] = target: T7, BD-ROC8 P3 (amino acids 18-70) (rice (Oryza sativa L.)) (UniProt Q69T58)
T7 sequence: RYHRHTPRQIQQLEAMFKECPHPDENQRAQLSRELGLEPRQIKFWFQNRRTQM

[8] = target: T8, BD-ROC8 P6 (amino acids 201-435) (rice (Oryza sativa L.)) (UniProt Q69T58)
T8 sequence: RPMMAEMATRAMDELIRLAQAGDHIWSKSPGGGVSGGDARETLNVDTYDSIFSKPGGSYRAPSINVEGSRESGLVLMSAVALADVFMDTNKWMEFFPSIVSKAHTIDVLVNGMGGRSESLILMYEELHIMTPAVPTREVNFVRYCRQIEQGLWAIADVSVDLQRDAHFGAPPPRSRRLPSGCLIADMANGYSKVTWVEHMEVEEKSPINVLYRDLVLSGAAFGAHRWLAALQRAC

[9] = target: T9, BD-ROC8 P2 (amino acids 1-70) (rice (Oryza sativa L.)) (UniProt Q69T58)
T9 sequence: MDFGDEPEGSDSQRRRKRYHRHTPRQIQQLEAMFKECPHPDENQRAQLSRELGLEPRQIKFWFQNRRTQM

B1: AD-ROC8 (full-length ROC8 fused to the GAL4 activation domain) (protein, UniProt Q69T58 1-710)
chain: MDFGDEPEGSDSQRRRKRYHRHTPRQIQQLEAMFKECPHPDENQRAQLSRELGLEPRQIKFWFQNRRTQMKAQHERADNCFLRAENDKIRCENIAIREALKNVICPTCGGPPVGEDYFDEQKLRMENARLKEELDRVSNLTSKYLGRPFTQLPPATPPMTVSSLDLSVGGMGGPSLDLDLLSGGSSGIPFQLPAPVSDMERPMMAEMATRAMDELIRLAQAGDHIWSKSPGGGVSGGDARETLNVDTYDSIFSKPGGSYRAPSINVEGSRESGLVLMSAVALADVFMDTNKWMEFFPSIVSKAHTIDVLVNGMGGRSESLILMYEELHIMTPAVPTREVNFVRYCRQIEQGLWAIADVSVDLQRDAHFGAPPPRSRRLPSGCLIADMANGYSKVTWVEHMEVEEKSPINVLYRDLVLSGAAFGAHRWLAALQRACERYASLVALGVPHHIAGVTPEGKRSMMKLSQRMVNSFCSSLGASQMHQWTTLSGSNEVSVRVTMHRSTDPGQPNGVVLSAATSIWLPVPCDHVFAFVRDENTRSQWDVLSHGNQVQEVSRIPNGSNPGNCISLLRGLNASQNSMLILQESCTDASGSLVVYSPIDIPAANVVMSGEDPSSIPLLPSGFTILPDGRPGSAAGASTSSAGPLAAARGGGGGGAGGGSVVTVAFQILVSSLPSSKLNAESVATVNGLITTTVEQIKAALNCSAHGHHP
- binding [1]: binds
- binding [2]: binds
- binding [3]: no binding
- binding [4]: binds
- binding [5]: binds
- binding [6]: binds

B2: AD-ROC5 (full-length ROC5 fused to the GAL4 activation domain) (protein, UniProt Q6EPF0 1-804)
chain: MSFGGLFDGGGGGGMQFPFASGFASSPALSLALDNAGGGIGGRMLGGGAGAGSSAGGAMTRDTEAENDSRSGSDHLDAISAAGEDDVEDAEPSNSRKRKKRYHRHTPQQIQELEALFKECPHPDEKQRAELSRRLSLDARQVKFWFQNRRTQMKTQLERHENALLKQENDKLRAENMTIREAMRSPMCGSCGSPAMLGEVSLEEQHLRIENARLKDELNRVCALATKFLGKPISLLSPPPLLQPHLSLPMPNSSLELAIGGIGGLGSLGTLPGCMNEFAGGVSSPMGTVITPARATGAAIPSLVGNIDRSVFLELAISAMDELVKMAQMDDPLWVPALPGSPSKEVLNFEEYLHSFLPCIGMKPAGYVSEASRESGLVIIDNSLALVETLMDERRWSDMFSCMIAKATVLEEVSTGIAGSRNGALLLMKAELQVLSPLVPIREVTFLRFCKQLAEGAWAVVDVSIDGLVRDHNSGTAPTGGNVKCRRVPSGCVMQDTPNGYCKVTWVEHTEYDEASVHQLYRPLLRSGLAFGARRWLATLQRQCECLAILMSSATVTANDSTAISQEGKRSMLKLARRMTENFCAGVSASSAREWSKLDGATGSIGEDVRVMARKSVSEPGEPPGVVLSAATSVWVPVAPEKLFNFLRDEQLRAEWDILSNGGPMQEMTQIAKGQRDGNSVSLLRASAVSANQSSMLILQETCTDASGSIVVYAPVDIPAMQLVMNGGDSTYVALLPSGFAILPDGPRIGATGYETGGSLLTVAFQILVNNQPTAKLTVESVETVNNLISCTIKKIKTALQCDA
- binding [1]: binds
- binding [7]: no binding
- binding [2]: binds
- binding [8]: no binding
- binding [9]: no binding
- binding [4]: binds
- binding [5]: no binding
- binding [6]: binds
